Reference: article PMC10726135
Some of the results follow. At the low end of the ranking the order means little. Measured with an extract: partners may take part in the binding.

Each sequence was assayed against T1, HNF4alpha8 (COS-7 nuclear extract) (UniProt P41235-5) (assay: protein-binding microarray). Conditions: COS-7 nuclear extract on double-stranded Agilent 4x180k PBM; binding buffer, salt, pH and temperature not given; high values mean tight binding; double strand, one strand shown; sequences stand for … in …GCCTAGGGAGATTAGAGTATCGGTCGA.
T1 sequence: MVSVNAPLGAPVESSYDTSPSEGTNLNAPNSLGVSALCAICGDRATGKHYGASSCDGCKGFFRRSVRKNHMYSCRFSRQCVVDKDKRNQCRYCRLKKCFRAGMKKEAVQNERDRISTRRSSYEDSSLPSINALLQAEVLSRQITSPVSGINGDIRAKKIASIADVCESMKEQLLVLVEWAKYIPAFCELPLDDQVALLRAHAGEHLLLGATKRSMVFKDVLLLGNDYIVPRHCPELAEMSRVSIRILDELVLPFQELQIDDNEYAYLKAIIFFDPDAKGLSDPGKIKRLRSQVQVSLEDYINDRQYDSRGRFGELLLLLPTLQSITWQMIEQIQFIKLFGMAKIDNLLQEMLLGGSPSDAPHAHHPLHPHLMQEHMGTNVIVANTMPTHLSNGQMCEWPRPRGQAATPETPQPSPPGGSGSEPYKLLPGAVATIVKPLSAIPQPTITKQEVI

Sequence | binding signal (log2 normalized intensity)
AATGATATGGACAATGAAATTCAGGCTGAG | -1.35
CTTTCTCTCTCCCTTCCTGGAGCCAAGGTT | 1.66
AAATTGATCTAGATAAGTTAGTTTACTTAG | -0.657
AACCCTGGCTGGAGTTGCTGAAATTCCCAC | -1.22
CTCCATCCCTCATCTGTCATTCCCTCACTC | -1.17
TGTGGTTGACAGGCAACAATTTGAGGGGTC | 2.22
CACTGGGCTGATGACCTTTGACTGAGATGG | 5.81
TGGAACGGGGGCAAGGGTCAGAGTAAAGCT | 4.21
ACTTTCCAGTCTAGGTCTGGAAGGAAGGAG | -1.25
GTAGGTACGTTTGTGATACACCTTGCCTGG | 0.594
ATACAAGTCGTAAAGACCTTGCTGATTACA | -1.38
CAAGCCCTCTAACTATGCAGTGTCCATGGT | 1.58
AGGGTTAAGCTCATGCTTTCATCTCCCCAA | 1.87
CCGCGATTAAAAATGGAACAGTAAGTGTTA | 0.151
TGTCAAAGGGAGAAAGACATGTTTCTAACT | -1.21
TCTGCTTGCAACCAAAGGAGTCCTGGCTGA | -1.35
GTCTGAGCACATCACACAGGCATATTTGGT | -0.288
ATTTGGACTTTTTGTAGTTTCAGCTTCTTC | 1.53
GGTGGGCAGAGGCCTGATGGTGAGTTCTGT | 0.175
TTGACCTTTATACCTGTACGTTACTCTGTA | 4.37
CGGTGCATTTTTTTCCACCCTCCCCTCCCC | 5.16
CTCAATCGCCTTTTATTTTTCCCCTGAAAT | 2.8
GCTAGAGATTCTCCCTGGGGCCTCTGAAGT | -1.18
ACAGTGACGTTCTGCCCCTTATCTTCTGGC | 2.22

Sequence | binding signal (log2 normalized intensity)
TCCGAACGCCAGCAGCAGGGTCAGAAGGGA | -1.29
CCTCACAATCTTAAGATAAGGTCTTTCTGA | 0.0701
GTCAGGCAGAGAGGGACTCTGACCCAGGAG | 3.07
TGGCATTCCAGGATGAAGGAAGAGGGAAGA | -1.25
TCTGTCCTGAGATGTCTGCTTCTTGGGTCA | 2.5
CCATCCCCCAATACACACACACCCCTCCAC | 6.37
GTCCAAGGACTCAATGATACCATCAGATAC | -1.36
CAGATGTTTCTGCAAGCACACTGTCCTGCT | -1.33
GAACTGAAAGAGACCTTTGACATCACCTAA | 2.77
GATCGATCACACAGACAGACATTCAGAAAC | -0.921
GCTTGTCGAGGACAGGATGGGGGTGGGAGG | -1.29
CTAGGCAGCATAGGGCCACTTTGTCCTTCA | 0.683
TCAGGAGAGGAGGCCCACACCCCTGGGGAA | -1.35
TCTCTTACCAGCTGGGGTTTTACCAGGCAC | 0.0183
GACCCGTCAGCCCTGGTCCAGGCCATGCAA | -1.22
GATAACCCACCTCCGGCCGGGAAGATGCCA | -1.38
ATTAATTAAAGAACTGACAAGCAGTGACCA | 1.5
AGGCCTTTATTTGCTTATAGCTCAAAGTCC | 6.06
GTTAAAGACCTTTGGGTAGGAATAGAGCTC | 0.581
GGGAGAATGATAAGATATATGACTCTAGAT | -0.791
CCCTAGTTTTTCTTCCGGTCACATACTCTG | 1.42
GCAGAAAAACATATTTGCATAATGGAGCAA | -0.812
TACGTACAATCTAAAAATGTTGAACTCACA | 2.29
